Test results as given in the supplement of paper PMC10126150.
Sequences with one replicate were seen in a single cluster, so their values are uncertain.

Tested on: ATP
Experiment: switch fluorescence ratio, 500 uM ATP over buffer (Cy3 cluster intensity, sum of 5 cycles each) (fold (ratio)); higher = stronger signal-on switching upon ATP binding; sequences stand for … in TCGTCGGCAGCGTCAGATGTGTATAAGAGACAGTTTTTTTTTTTTTTTTTTTTTTTTT…TC
Conditions: aptamer strand: ATP DNA aptamer (quencher-CACCTGGGGGAGTATTGCGGAGGAAGG + anchor), 100 nM annealed; ATP concentration: 500 uM; one replicate
Outline: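 Clusters carrying Cy3-labelled switching strands on a modified Illumina MiSeq flow-cell were annealed to 100 nM quencher-labelled ATP aptamer and imaged in selection buffer. They were imaged again after 15 min with 500 uM ATP at 22 °C, over five buffer/ATP cycles with NaOH stripping and re-annealing in between. For each cluster, the fluorescence ratio is the summed Cy3 intensity of the target cycles divided by that of the buffer cycles, averaged per switch-domain sequence. Clusters outside 100-1000 RFU were left out.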
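Note: ATP exposure 15 min at 22 °C before imaging.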

Sequence | switch fluorescence ratio
GACGGCTGAA | 1.01
TGTCGCACAT | 1.05
ACCGGGCTCT | 1.04
GGCAGGGCCC | 0.96
GTTAGGAATG | 0.982
CAAGGCATAT | 1.14
CTTTCTTGAG | 0.99
GGCACAATGC | 1.25
TTACCTTGT | 0.984
AAACGTTTAT | 0.97
CAAAATTAT | 1
GCCCTATACG | 1.02
CGATTCAGCG | 1.01
GTAGGAAAGT | 0.985
AGAAGGGGAG | 0.945
ATTCGGGCG | 0.905
GGTATTGGTG | 0.972
AGCAGATGCG | 1
ACGGTATGTT | 1.11
CTCAGGCAAG | 1.61
AAATGTCGCA | 0.998
GGTAAATG | 1.04
ATCAGTAGTA | 1.01

Sequence | switch fluorescence ratio
GATTGTCTCA | 1
GCAAGCGGAT | 1.06
TGGATCAGT | 1.04
CAGGGGCAAA | 1.1
AGGGACCTCG | 0.978
CAATGAGCGA | 1.03
TGCGAGTAGG | 1.05
TTAGTTCCAG | 0.984
GGAAGATTCC | 1.07
TTCCGGACGT | 1.08
TTGTCTCAAT | 0.996
TTGTTTAGTA | 1.04
TAAAAACAAA | 0.966
ATAAGAGAGG | 0.96
TCGTGAACT | 0.951
TAATAAGGCG | 0.985
GGTGAGGTAC | 1.03
CTTGGCAGTG | 0.984
CTGCTAAAAG | 1.01
GCGACTCTGG | 0.987
TACTACAAGA | 1.03
CATCGGTTAG | 0.96
CGACAGCCAA | 3.67

Sequence | switch fluorescence ratio
GAGGTGATGA | 1
CTTACGTGTC | 1.02
CTTCGTCTCA | 1.04
AATAGTAGTC | 0.991
ACACCCTGAT | 1.13
TAGCGCGTCG | 0.994
ATGCCGACAC | 1.02
AATAGTCCTT | 0.949
TCAATCTAAG | 1.11
TCCGTCTTCC | 1.1
TAGTAGAGTA | 1.02
GGGCATCGA | 0.993
CCTCCACGAG | 3.53
TCTTAGGCTA | 1.03
GTTGGCACGT | 0.991
CTGAGGGCAA | 2.97
GGGCAAGACC | 0.934
GCAAAAGGGT | 1.03
TGCAGCGACG | 0.965
AGGAATGCCG | 0.959
CAAGTTAGGA | 1.02
ATGGCGCAAG | 0.987
GAAAGGTGTA | 1.11

Sequence | switch fluorescence ratio
TACAAGTGGT | 1.02
CCAGGCATGA | 1.09
TAGACGCA | 0.99
CTGACGAACG | 1.28
AGACAGTAGC | 1.01
GCATAAAGTA | 0.975
AAGTATTGT | 0.992
GTCTATAATC | 0.988
GCAACGCTG | 0.985
CAGCCTCGGG | 1.04
TAATATTAAT | 0.97
AAAACAGAAC | 1.01
CTCCCGAAGT | 1.23
ATATTAATC | 0.976
ATGATAATCC | 1.04
CGTTATGTAA | 1
TTCCCGACC | 1.28
CCGTTGGGG | 1.09
GGGTACCCCC | 1.05
CGGAAATTTT | 0.972
TAGAGCACTC | 0.958
CCGTTACAGT | 1.11
TTCTGTGTCT | 0.997

Sequence | switch fluorescence ratio
TTCTAGTCGG | 1.02
GAAGTTCTAG | 0.995
GGAAACCTGA | 3.49
GCTACTAGGT | 1.01
GGCCCGAGAT | 1.03
TTACAAACTA | 1.09
TTGTCATTTC | 1.03
CAGTGGCCCC | 1.01
ACTGCATAGC | 1.05
CGCTTTCTTC | 1.02
TAAATATAG | 1.03
CTATGTCATA | 1.01
GTCAATGAGC | 1.37
TAGCCTGGGG | 0.992
ATTAGTAAAA | 1
ACAAACGTAT | 1.37
CGTACCCCAC | 1.12
AGTTATGC | 1.05
GGTTGTTCGC | 0.956
ATCAATAGTT | 0.999
GCCCAGCCCG | 0.998
CTATGAGGAT | 0.991
CCACGAGGG | 1.08

Sequence | switch fluorescence ratio
GTATCGTATT | 1.02
CACGGTAGGG | 1
TGATGGGGAA | 0.96
CCACATGAGC | 1.05
ATGGAGGGAG | 0.969
CACTGTGGCT | 0.999
GTACTGAGAA | 1.04
GCGGCAAAAA | 0.981
CAGTGTATGA | 1.02
ATTATGGGA | 1.01
CATTCTTTTA | 1
ACTGGAGGGA | 1.03
AACCTATCGA | 1.03
AATTAAACGC | 1.04
CGTGCAATGT | 2.3
GACGGGTGTG | 0.988
GACAACGGGG | 1.04
CTGAACTTA | 1
CTCAAGAAAT | 1.04
ATTGACTCGA | 1
TCGTCATTTG | 0.988
GATCTCTCGG | 1.04
GAATTGAGTA | 0.995

Sequence | switch fluorescence ratio
TGGGGTCTTC | 0.973
CGGCCATAGG | 1.31
TTTGCTACC | 1.05
GCGGCCGTCG | 0.925
ATTGGGCCCG | 0.961
CTGGCAAGTT | 1.02
CAACGTTAAA | 1.69
TTTGAGCCGA | 1.04
AGAATTAAAA | 0.987
ACTTTGCCTA | 1.06
TCAGTCTGGG | 0.99
TCCATCCACT | 1.12
ATGTCTTAGC | 0.991
TTTAACCGA | 1.1
TGTGAAAACC | 1
AGGAGATGTG | 0.993
GTCATTCAGA | 0.985
CATCACGCCG | 0.962
AATGGCAGC | 1.01
CGGGAGGAGC | 1.04
